Laboratory results reported in the supplement of paper PMC11417369.
Some of the results follow.

What follows are sequences tested on PfSIP2 AP2 domain 1 (GST-tagged) (assay: gcPBM binding intensity (ln(normalized median fluorescence intensity)); higher = stronger DNA binding).
Procedure, shortened: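 After 1 h on an Agilent 4 × 180k array of primer-extended double-stranded 36-bp intergenic genomic probes and negative controls, bound GST-tagged P. falciparum DNA-binding domains were detected with Alexa488 anti-GST antibody and scanned at 488 nm. The domains had been expressed in E. coli, and binding took place in 1× PBS with 1% milk, 0.2 mg/ml BSA, 0.5% salmon testes DNA and 0.03% Triton X-100. Binding intensity is the highest Masliner-normalised natural-log median intensity across replicate spots of either probe orientation.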

Row | Sequence | gcPBM binding intensity (ln)
1 | AATTCTTTCATATATTGTACGTATTCCCATAAAATA [XGTACX_site5923] | 7.36
2 | TTTAAATATTTTAACACACTCATATTTAGGTTACAA [CACACA_site5685] | 6.98
3 | TTTACATATTTATATACACACTTTTGCGTGTCTGGT [CACACA_site4750] | 6.99
4 | TCCATATATATTATGTGTACATATTATATATATAAA [XGTACX_site7525] | 7.32
5 | TAATCCATAAGAAGCACACACATATAAATATATTTT [CACACA_site6774] | 6.98
6 | GTAATATTATATAGTTGTACTTTTTTTTTATTATAT [XGTACX_site483] | 7.18
7 | ATATATAAAATATATTGTACATTAACATATATATTT [XGTACX_site2055] | 6.88
8 | AAACTTGACGGACACACACACACATATATAAAAAAA [CACACA_site4577] | 7.44
9 | ATATATAAATAAATAGTGCATTTTAATATTTAACGT | 9.27
10 | AGTAAAAGAAAGCACACACACATGTATATATGTATG [CACACA_site3858] | 6.9
11 | CAATATAAAAAACACACGCACACAAAAAAAAAAAAA [CACACA_site3521] | 7.01
12 | AAAAAAAAAATTTTCGTGCACATAAGAAAATTTAAA [GTGCAC_site9788] | 9.36
13 | ATAGTATATCAAAATTTGTAAATCATTCTCAATAAA [CACACA_negctrl_site430] | 6.67
14 | CATACATACAAACACACACACATATAAATACATACA [CACACA_site4625] | 7.3
15 | ACATTGTTGGTGTTAGTGCATTGGTAAATATTATAT | 8.5
16 | AAAAAAAAAAAAAAAACACACATATCTGTATTTATA [CACACA_site5760] | 7.51
17 | CACACGTAAAAGTATAATATAAAAAAGGTATACACT [CACACA_negctrl_site127] | 6.92
18 | TATTTAAAGATATATACACACATTTGATATTATTAT [CACACA_site6509] | 6.94
19 | ACCTACATACATATGTGTACTTATTTGTATTCACTG [XGTACX_site7124] | 7.1
20 | TTTATAAACAAATGAACACACAAACATATTTATATA [CACACA_site7478] | 6.88
21 | ATAATATATGAAAAAACGATTTTTTCATTTTAAATA [XGTACX_negctrl_site146] | 6.85
22 | TTTTAGCTATTTTAATATAATGAAGCAAAAAATAAA [TGCATGCA_negctrl_site576] | 6.9

Row | Sequence | gcPBM binding intensity (ln)
23 | ATAATAAATTCTACGCGTACAAAACCATGAACATTA [XGTACX_site7505] | 7.43
24 | CTTTCAAAATTATTTATAGTATCTCATATTTTAGTA [XGTACX_negctrl_site72] | 6.74
25 | TTTATTAATAAAAAGGTGCAATCAGGAAAAATTATC [GTGCAC_site9626] | 10.8
26 | ATCCTTTATAAATAAGTGCATATAAAAAATAATATT [GTGCAC_site9759] | 8.72
27 | ACACATATGTATATATGTACTTATATATATATATAT [XGTACX_site8632] | 9.2
28 | AATTATATATAAAAAGTGCAAAACGATAATTCATCA | 8.26
29 | TCATATTCCAAAAAAAAAAAAAAAAAAAAAAAAATA [CACACA_negctrl_site1293] | 6.94
30 | AATATATATATATTATGTACACATAGAAATATATTA [XGTACX_site3874] | 7.25
31 | ATGTATTACTTAAATATATGAAACATATTACTTTTA [CACACA_negctrl_site496] | 6.7
32 | TTTTTTTTTTTTTTTTGTACTTATAAAATAACATGT [XGTACX_site134] | 7.18
33 | TAATACTTAGAGAAAAGTACGTATGAACTTATGTAA [XGTACX_site5504] | 6.79
34 | AGTCCTTACACATATATTAAATATGTGTATATATAT [XGTACX_negctrl_site336] | 7.72
35 | TTTTGTTTAGTGTATTGTACAATATATCTTTATTTT [XGTACX_site5163] | 6.94
36 | TATTAATACGGACACACACACACACTAGATAAAATA [CACACA_site4295] | 7.4
37 | AAAAAAAAAAAAAAAAGTACATATATATATATAATT [XGTACX_site4437] | 7.54
38 | TATTTAAATACTGACGCATGCATAAGGAGTAATAGT [TGCATGCA_site465] | 7.34
39 | AAACATTTATGAAGGTGTACAAAAATGAATTAAAAA [XGTACX_site7035] | 6.87
40 | TTTATAATAAAAAATACATGCAGTTATATATAATAA [TGCATGCA_site654] | 7.15
41 | ATATTGAAAATTTGAAGTACATCTAAATATATTATT [XGTACX_site7817] | 6.93
42 | TATATATAAATAAACACACACAAATATAATAAAAAA [CACACA_site3526] | 7.08
43 | ATCCGTGTCTGAAATACACACATGACAATGTGAATG [CACACA_site6556] | 6.96
44 | ATAATGTGTTTGGTATTCTTGATAGATAGTTTTGTG [CACACA_negctrl_site68] | 6.99
